Experimental data published in PubChem BioAssay AID1768 (National Center for Advancing Translational Sciences (NCATS), 2009).
Out of some 270,000 compounds screened, about 620 (0.23%) were called active. Inconclusive means that the source gave no clear call. Such entries were picked first, then a sample of the others. The call rests on the fitted dose curve; in most records, active means well fitted inhibition curve with a large enough effect in the polarisation, with a control signal flat (not every such curve was filed as active); inconclusive means small, poorly fitted or top-dose-only effect, or effect the other way, or a change in a side signal; inactive means no such curve, though single readings can be large or run the other way; the % refers to the polarisation. Potencies of inconclusive entries are doubtful fits and often do not repeat. “Side channel” marks fits to a control or component signal instead of the main read-out.

Target: Menin (Homo sapiens) (UniProt O00255)
Chain of UniProt O00255 (O00255 whole entry, looked up): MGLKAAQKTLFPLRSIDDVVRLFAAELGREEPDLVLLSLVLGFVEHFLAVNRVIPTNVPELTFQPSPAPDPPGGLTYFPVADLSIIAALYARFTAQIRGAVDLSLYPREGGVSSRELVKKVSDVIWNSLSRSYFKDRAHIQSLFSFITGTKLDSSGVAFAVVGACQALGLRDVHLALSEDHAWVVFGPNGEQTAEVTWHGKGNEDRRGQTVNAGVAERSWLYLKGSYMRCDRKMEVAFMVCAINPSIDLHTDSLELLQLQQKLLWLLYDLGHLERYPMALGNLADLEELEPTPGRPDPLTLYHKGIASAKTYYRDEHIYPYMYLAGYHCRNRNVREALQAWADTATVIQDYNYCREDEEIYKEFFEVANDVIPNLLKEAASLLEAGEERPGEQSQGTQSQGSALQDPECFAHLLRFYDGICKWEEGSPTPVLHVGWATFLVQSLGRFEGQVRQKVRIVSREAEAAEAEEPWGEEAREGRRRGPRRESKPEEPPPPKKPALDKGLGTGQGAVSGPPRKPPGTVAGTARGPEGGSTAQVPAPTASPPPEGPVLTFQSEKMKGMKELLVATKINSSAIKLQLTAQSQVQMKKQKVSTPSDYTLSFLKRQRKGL
Test: qHTS Assay for Inhibitors Targeting the Menin-MLL Interaction in MLL Related Leukemias: Competition With Texas Red Labeled MLL-derived Mutant Peptide; on FP activity change, negative = inhibition: % of control where 0% means no effect
Settings: fluorescence polarization; FP activity change, negative = inhibition: at 61.6 µM (top of the series)
Potency means the concentration at half of the fitted maximal effect; tags describe the fitted curve by direction and shape or compound fluorescence and quenching.

Row | Compound | FP activity change, negative = inhibition | Potency
1 | COCCOC(=O)c1cc(C(=O)c2cc(F)ccc2O)coc1=N | inactive: 4.84% | 
2 | COc1cccc(CNC(=O)c2cc3oc4ccccc4c3n2C)c1OC | inactive: -0.669% | 
3 | O=c1[nH]c(SCc2ccccc2F)nc2ccccc12 |  | inconclusive: 22.4 µM [fluorescent, side channel, single point]
4 | CC(C)C1=CC2=CCC3C(C)(C(=O)O)CCCC3(C)C2CC1 (centres undefined) (tested in a mixture with another compound) |  | inconclusive: 44.7 µM [inhibitor, partial curve]
5 | CNc1nc2c(-c3ccc(Cl)cc3)nnn2c2ccccc12 |  | inconclusive: 35.5 µM [inhibitor, single point]
6 | Cc1c(C)c2ccc(OCC(=O)N3CCN(c4ccc(F)cc4)CC3)c(C)c2oc1=O |  | inconclusive: 39.8 µM [inhibitor, single point]
7 | NC(=O)C(=O)N/N=C/c1c[nH]c2ccc(Br)cc12 |  | inconclusive: 39.8 µM [quencher, side channel, single point]
8 | O=C(NCCNC(=O)c1ccccc1O)c1ccccc1O | inactive: 14.9% | 
9 | Cn1c(CCN2CCCCC2)nc2cc([N+](=O)[O-])ccc21 |  | inconclusive: 2.82 µM [inhibitor, full curve]
10 | O=Nc1c2ccc[nH]c-2c2ccc([N+](=O)[O-])cc12 |  | inconclusive: 14.1 µM [quencher, side channel, single point]
11 | O=C(/C=C/c1cccs1)Nc1ccc(N2CCOCC2)c(S(=O)(=O)Nc2ccccc2Cl)c1 |  | inconclusive: 31.6 µM [quencher, side channel, partial curve]
12 | C#CC(C)(CC)NC(=O)c1cc2cccc(CC=C)c2oc1=O (centres undefined) |  | inconclusive: 7.94 µM [fluorescent, side channel, full curve, poor fit]
13 | CCc1ccc(CN2CCCC(CNS(=O)(=O)c3ccc(OC)cc3)C2)cc1 (centres undefined) |  | inconclusive: 17.8 µM [fluorescent, side channel, partial curve]
14 | CCOc1ccc(CN2CCC(Cc3ccccc3)CC2)cc1 | inactive: -27.4% | 
15 | COc1ccc(Br)cc1S(=O)(=O)N1CCCc2ccccc21 | inactive: -0.49% | 
16 | OC[C@@H]1[C@@H](c2ccc(Cl)cc2)C(c2ccc(F)cc2)=NN1c1ccccc1 |  | inconclusive: 22.4 µM [quencher, side channel, partial curve]
17 | CC(=O)c1sc(NC(=O)CCCOc2ccc(Cl)cc2)nc1C |  | inconclusive: 39.8 µM [fluorescent, side channel, single point]
18 | COc1ccc(O)c(C(=O)c2cnc3onc(C)c3c2)c1 |  | inconclusive: 28.2 µM [quencher, side channel, single point]
19 | Cc1ccc(/C=C/C(=O)Nc2ccc([N+](=O)[O-])c(NC(=O)/C=C/c3ccc(C)o3)c2)o1 |  | inconclusive: 10 µM [quencher, partial curve]
20 | Cc1ccccc1-n1c(Cn2c(=O)sc3ccccc32)nnc1SCC(=O)N1CCCC1 |  | inconclusive: 1.41 µM [inhibitor, full curve]

Row | Compound | FP activity change, negative = inhibition | Potency
21 | CSCc1nc2sc(C(=O)Nc3nc(C)cs3)c(C)c2c(=O)[nH]1 |  | inconclusive: 25.1 µM [quencher, side channel, partial curve]
22 | Oc1ccc(NCc2ccccc2OCc2ccccc2F)cc1 |  | inconclusive: 20 µM [quencher, side channel, partial curve]
23 | Clc1ccc(C2CC(c3cccs3)n3ncnc3N2)c(Cl)c1 (centres undefined) |  | inconclusive: 28.2 µM [fluorescent, side channel, single point]
24 | O=C(Nc1ccc2c(c1)OCO2)c1cccc2c1C(=O)N(Cc1cccnc1)C2 |  | inconclusive: 35.5 µM [quencher, side channel, single point]
25 | COc1ccc(C)cc1Nc1n[n+](-c2ccccc2)c(-c2c(Cl)cccc2Cl)s1 |  | inconclusive: 12.6 µM [inhibitor, partial curve]
26 | CCCCOc1ccc(C(=O)N2CCCC2)cc1 |  | inconclusive: 44.7 µM [inhibitor, partial curve, poor fit]
27 | C=CCc1ccc(OCCOCCNCCCC)c(OC)c1 |  | inconclusive: 22.4 µM [fluorescent, side channel, partial curve]
28 | COc1ccc(CCN2CC(C(=O)NCc3cc(C(C)C)no3)CCC2=O)cc1 (centres undefined) |  | inconclusive: 22.4 µM [inhibitor, single point]
29 | CC(Oc1ccc(Cl)cc1Cl)C(=O)NCCCCc1ccccc1 (centres undefined) |  | inconclusive: 25.1 µM [fluorescent, side channel, partial curve]
30 | C/C(=N\NC(=O)c1nnn(-c2nonc2N)c1C(C)C)c1ccncc1 |  | inconclusive: 3.55 µM [inhibitor, partial curve]
31 | COC(=O)c1ccc(OC(=O)/C=C/c2ccco2)cc1 | inactive: 43.3% | 
32 | COC(=O)C1=C(C)N(C)C(=O)NC1c1c(OC)ccc2ccccc12 (centres undefined) | inactive: -12.6% | 
33 | COc1ccc(C(=O)Nc2ccc(N3CCN(C(C)=O)CC3)cc2)cc1[N+](=O)[O-] |  | inconclusive: 5.62 µM [inhibitor, partial curve]
34 | Cc1cccc(CN2CCNC2=O)c1 |  | inconclusive: 39.8 µM [inhibitor, single point]
35 | CCC(=O)Nc1cc(C(=O)OCC(=O)c2ccc(Cl)cc2Cl)ccc1C |  | inconclusive: 39.8 µM [fluorescent, side channel, single point]
36 | CCOc1ccccc1N1CCN(C(=O)c2csc(C)c2CC)CC1 |  | inconclusive: 10 µM [fluorescent, side channel, partial curve]
37 | O=[N+]([O-])c1ccccc1NC(=S)N/N=C/c1ccc(O)c(O)c1 |  | inconclusive: 22.4 µM [quencher, side channel, partial curve]
38 | COC(=O)CC1c2ccccc2C(Cc2ccc(OC)cc2)C(C)N1C(=O)OC (centres undefined) | inactive: -21.3% [at 11.7 µM] | 
39 | NC(=O)COc1ccccc1/C=C1/SC(=O)N(CC(=O)N2CCc3ccccc3C2)C1=O |  | inconclusive: 1.78 µM [inhibitor, partial curve]
